This is one part of the list. At the low end of the ranking, values are background and their order means little.

The target of this assay is T1, GST-Rok (full length) (UniProt O34857).
T1 sequence: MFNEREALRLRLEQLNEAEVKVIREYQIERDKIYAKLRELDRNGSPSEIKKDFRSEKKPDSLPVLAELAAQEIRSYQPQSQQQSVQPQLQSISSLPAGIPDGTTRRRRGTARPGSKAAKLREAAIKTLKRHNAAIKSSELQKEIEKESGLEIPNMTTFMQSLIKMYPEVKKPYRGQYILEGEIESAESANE
The assay is described as follows: protein binding microarray.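 Note: rank score from −0.5 (least bound) to 0.5 (best bound).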 To be noted: Rok is a gene silencer of Bacillus subtilis; high values mean tight binding; most listed sequences are background and not binding sites; double strand, one strand shown.
Sequence GATTCAAC returned a binding signal of -0.116 E-score.

For ACGGTGAA, the binding signal was 0.0102 E-score.

Turning to CGGGGTCA, the binding signal is -0.417 E-score.

Sequence CACACAGA registered a binding signal of -0.066 E-score.

With CAGGGCAA, the binding signal was -0.202 E-score.

Sequence GTAGCAGA yielded a binding signal of 0.108 E-score.

TCCATAGA gave a binding signal of 0.114 E-score.

For ACCGAGTA, the binding signal is 0.0133 E-score.

Sequence AGCCTTGG yielded a binding signal of -0.204 E-score.

CGTAAATC came in with a binding signal of 0.0869 E-score.

Sequence AATCGGCA returned a binding signal of -0.0582 E-score.

Turning to CGTTATTA, the binding signal came to 0.236 E-score.

Consider CACACAAA, for which the binding signal was determined as 0.0382 E-score.

In the case of CGCCACGC, the binding signal was -0.413 E-score.

Consider CGTATCGC, for which the binding signal was -0.0302 E-score.

In the case of ATTGATCG, the binding signal came out at 0.0726 E-score.

The sequence ACTCTCTC came in with a binding signal of -0.0673 E-score.

In turn, AAGCAACG returned a binding signal of -0.116 E-score.

In turn, GCCAGAAA gave a binding signal of -0.161 E-score.

On to CCAGTGCA, for which the binding signal is -0.119 E-score.

Take AGGTTAGA: the binding signal is -0.0489 E-score.

Regarding GCAATCGA, the binding signal stood at 0.025 E-score.

In turn, GTCACGAA returned a binding signal of -0.0178 E-score.

TCGTTCAA returned a binding signal of 0.0056 E-score.

For AACAACGG, the binding signal was -0.259 E-score.

The sequence ACGACTCT gave a binding signal of -0.0544 E-score.

AAACCACC gave a binding signal of -0.0925 E-score.

As to AGCTAATA, the binding signal was 0.255 E-score.

CTATGACA had a binding signal of 0.117 E-score.

On to ATTTCTCA, for which the binding signal was found to be 0.165 E-score.

Turning to AAGTGATA, the binding signal turned out to be 0.243 E-score.

For GGAGATAA, the binding signal turned out to be 0.202 E-score.

GCTCCATA had a binding signal of 0.0969 E-score.

As for CGATAGAA, the binding signal amounted to 0.344 E-score.

With AATTTGAA, the binding signal is 0.0473 E-score.

Consider CTTTGTAC, for which the binding signal worked out at 0.158 E-score.

In turn, AACCAATT showed a binding signal of 0.0583 E-score.

Regarding ACATAGAA, the binding signal stood at 0.242 E-score.

Regarding CTGGAGTC, the binding signal is -0.224 E-score.

Take AGTGACCA: the binding signal was -0.217 E-score.

Turning to ACTATAAT, the binding signal was 0.411 E-score.

Sequence CTTGCACC registered a binding signal of -0.0785 E-score.

The sequence CCTGCAGC yielded a binding signal of -0.265 E-score.

For the sequence GAAATGTA, the binding signal turned out to be 0.351 E-score.

For the sequence AGTACAGC, the binding signal came out at 0.208 E-score.

Sequence ACGGGGTC had a binding signal of -0.401 E-score.

On to CACGACAA, for which the binding signal was -0.122 E-score.

In the case of ATCTGTAG, the binding signal came out at 0.291 E-score.

Consider CTCATGAC, for which the binding signal was -0.000829 E-score.

Turning to CATTATTC, the binding signal amounted to 0.228 E-score.

CAATCTGA registered a binding signal of -0.0533 E-score.

For AGTTATTA, the binding signal is 0.188 E-score.

GCAGGCGC yielded a binding signal of -0.256 E-score.

In turn, ATACTCCA displayed a binding signal of 0.0647 E-score.

Consider GGCATATA, for which the binding signal was found to be 0.104 E-score.

Consider AAAGAACT, for which the binding signal turned out to be 0.115 E-score.

As for CCTGTTCC, the binding signal is -0.23 E-score.

Consider CCTACACC, for which the binding signal is -0.000572 E-score.

Regarding CTCCTGCA, the binding signal is -0.233 E-score.

ACAGGGAG had a binding signal of -0.272 E-score.

For the sequence GCGTTACC, the binding signal was -0.0226 E-score.

TGCTTGAA: the binding signal is -0.0266 E-score.

As to CGTAATTA, the binding signal was 0.328 E-score.

Take AAGTTGCA: the binding signal was found to be 0.0433 E-score.

TAACGGTA yielded a binding signal of 0.259 E-score.

The sequence ATTCCAAC gave a binding signal of 0.228 E-score.

Turning to CGCTGAGA, the binding signal was -0.373 E-score.

AAGGGTCG: the binding signal was -0.372 E-score.

ACGAAAAG: the binding signal is -0.0345 E-score.

CCGTTAAG returned a binding signal of -0.0263 E-score.

The sequence CACATGAC showed a binding signal of -0.00931 E-score.

Consider AGAGGACA, for which the binding signal is -0.229 E-score.

With CAGTTGCG, the binding signal is -0.0413 E-score.

GTCCCTCA: the binding signal was -0.236 E-score.

On to CCGACTAA, for which the binding signal turned out to be 0.0388 E-score.

Sequence ACCGGGGA yielded a binding signal of -0.132 E-score.

Turning to CACGCTGG, the binding signal is -0.0903 E-score.

Regarding CCACCATA, the binding signal stood at 0.146 E-score.

AAGAGATC yielded a binding signal of -0.0676 E-score.

Take GAAGAAGA: the binding signal is -0.113 E-score.

Take ACATGGTG: the binding signal turned out to be 0.102 E-score.

As for GGATGGTA, the binding signal was 0.268 E-score.

CGTGGGGA came in with a binding signal of -0.36 E-score.

ACCGTTGA showed a binding signal of 0.0907 E-score.

As for CACATATG, the binding signal was determined as 0.266 E-score.

AGGCTGTA showed a binding signal of 0.00795 E-score.

The sequence GTATCTCA yielded a binding signal of 0.185 E-score.

For the sequence GGCGGTCA, the binding signal was -0.252 E-score.

TCCTCAGA showed a binding signal of -0.0248 E-score.

Sequence GACTAGTA displayed a binding signal of 0.365 E-score.

On to ACCACTCG, for which the binding signal is -0.238 E-score.

Turning to AGCGGACA, the binding signal was -0.166 E-score.

Sequence ACTGAAGG displayed a binding signal of -0.276 E-score.

AACGACCC returned a binding signal of -0.282 E-score.

CAGCAACA displayed a binding signal of 0.13 E-score.

Turning to GTAATACA, the binding signal was determined as 0.247 E-score.

ATCGTATG came in with a binding signal of 0.189 E-score.

Sequence TAAACTAA returned a binding signal of 0.288 E-score.

The sequence AATACCAA displayed a binding signal of 0.0615 E-score.

As to CTTGTCGA, the binding signal is -0.198 E-score.

With GCTCATAA, the binding signal was -0.0394 E-score.

For CAGCTCAC, the binding signal was -0.148 E-score.

AAGCACTT yielded a binding signal of -0.128 E-score.

GCCACACA returned a binding signal of -0.0797 E-score.

For the sequence CGATGGCC, the binding signal is -0.114 E-score.

As to ATCCCTTC, the binding signal is -0.217 E-score.

AGTTTTCA gave a binding signal of 0.0286 E-score.

On to GAACTCGA, for which the binding signal is 0.0522 E-score.

Sequence AGCAATCA registered a binding signal of 0.238 E-score.

With GCTGACCC, the binding signal is -0.308 E-score.

ACTTTACG gave a binding signal of 0.189 E-score.

Regarding CTAAGGTC, the binding signal is -0.0306 E-score.

For the sequence CGGTGCTC, the binding signal is -0.237 E-score.

With ACTTGCAA, the binding signal worked out at 0.0887 E-score.

GAACATGA: the binding signal was -0.0305 E-score.

ATCGATAC registered a binding signal of 0.213 E-score.

In turn, AATAGACT registered a binding signal of 0.0828 E-score.

Consider TAGTGAAA, for which the binding signal was found to be 0.156 E-score.

As to ATTGCTGA, the binding signal was -0.177 E-score.

In the case of AGGGTCAT, the binding signal turned out to be 0.0363 E-score.

Consider ACCTATTA, for which the binding signal amounted to 0.232 E-score.

GTTGCACA yielded a binding signal of -0.0321 E-score.

Sequence ATGGGGCA showed a binding signal of -0.154 E-score.

Consider AACCACTG, for which the binding signal was -0.154 E-score.

Take CTGGAGCA: the binding signal is 0.0178 E-score.

CATTTTCG: the binding signal was 0.108 E-score.

For the sequence AGTGTGCG, the binding signal is -0.0954 E-score.

With CTTAGGGC, the binding signal is -0.166 E-score.

Regarding GACGGGGC, the binding signal was -0.305 E-score.

CAGAGTGC came in with a binding signal of -0.14 E-score.

Turning to GAAGTCTA, the binding signal is -0.0217 E-score.

With TAACGATA, the binding signal came out at 0.206 E-score.

On to AGACTGGC, for which the binding signal was -0.0698 E-score.

In the case of CAGGCCGC, the binding signal was -0.316 E-score.

Consider AGACTGAC, for which the binding signal is -0.144 E-score.

TCGCTTCA came in with a binding signal of -0.0937 E-score.

GAGGTTAC came in with a binding signal of -0.00918 E-score.

For CCAACCAG, the binding signal was -0.171 E-score.

On to CGTTGGCA, for which the binding signal is -0.111 E-score.

For the sequence AATGGAAC, the binding signal came to 0.0464 E-score.

In the case of AACGGTAC, the binding signal worked out at 0.236 E-score.

Take GAACTGCA: the binding signal is -0.0807 E-score.

As to CCATTTAA, the binding signal was 0.00324 E-score.

On to ATCTCTAG, for which the binding signal was -0.00242 E-score.

The sequence AGTATCAC came in with a binding signal of 0.104 E-score.

In turn, ACAAGTGC returned a binding signal of 0.0808 E-score.

Consider AATTCCAC, for which the binding signal was determined as 0.13 E-score.

For CCTCGTGC, the binding signal is -0.483 E-score.

In turn, ACTTCACG came in with a binding signal of -0.199 E-score.

CGCCTAGA registered a binding signal of -0.0948 E-score.

Take ATCAAAAG: the binding signal came out at 0.0689 E-score.

The sequence GGGTGTAC displayed a binding signal of -0.133 E-score.

Sequence TACCGATA had a binding signal of 0.291 E-score.

ATGTATTA had a binding signal of 0.247 E-score.

As to AGCCAGCA, the binding signal was -0.138 E-score.

In turn, GTAGCGGA returned a binding signal of -0.0485 E-score.

As for CCAGTACA, the binding signal amounted to 0.162 E-score.

Sequence CTGGTGGC returned a binding signal of -0.272 E-score.

The sequence CGCAGCAC registered a binding signal of -0.163 E-score.

In turn, AAGCCGCC gave a binding signal of -0.367 E-score.

Consider CTATGTAC, for which the binding signal was 0.186 E-score.

In turn, AGCTTACT yielded a binding signal of 0.109 E-score.

ATGGTGTC gave a binding signal of -0.138 E-score.

For the sequence AAGTATTA, the binding signal amounted to 0.284 E-score.

Turning to GAACTGTA, the binding signal stood at 0.151 E-score.

ACGAGACT had a binding signal of -0.0645 E-score.

With ACGGCAAA, the binding signal came out at 0.00569 E-score.

CCGTATAC yielded a binding signal of 0.117 E-score.

Regarding CCTTCGAG, the binding signal is -0.21 E-score.

For the sequence AATTCGCG, the binding signal was determined as 0.238 E-score.

Sequence CCTTTAAA gave a binding signal of -0.211 E-score.

CCCTTGCA had a binding signal of -0.306 E-score.

The values are drawn from article PMC6212790.
